The results in this text go back to article PMC8425901.

Amino acid sequences for entries named in this document (tags omitted). Residues count along the entry.
UniProt Q9P289: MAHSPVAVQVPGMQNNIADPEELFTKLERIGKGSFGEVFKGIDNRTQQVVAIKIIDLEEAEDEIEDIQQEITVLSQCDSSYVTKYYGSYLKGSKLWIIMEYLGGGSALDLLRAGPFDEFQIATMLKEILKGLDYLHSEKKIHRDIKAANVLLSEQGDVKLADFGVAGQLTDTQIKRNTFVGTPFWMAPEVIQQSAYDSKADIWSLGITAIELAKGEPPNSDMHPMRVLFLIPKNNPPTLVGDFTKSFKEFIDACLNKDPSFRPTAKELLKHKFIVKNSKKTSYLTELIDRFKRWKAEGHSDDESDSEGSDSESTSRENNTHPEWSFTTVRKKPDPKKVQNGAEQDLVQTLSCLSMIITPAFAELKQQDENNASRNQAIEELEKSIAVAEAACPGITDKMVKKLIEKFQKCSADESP
UniProt P49840: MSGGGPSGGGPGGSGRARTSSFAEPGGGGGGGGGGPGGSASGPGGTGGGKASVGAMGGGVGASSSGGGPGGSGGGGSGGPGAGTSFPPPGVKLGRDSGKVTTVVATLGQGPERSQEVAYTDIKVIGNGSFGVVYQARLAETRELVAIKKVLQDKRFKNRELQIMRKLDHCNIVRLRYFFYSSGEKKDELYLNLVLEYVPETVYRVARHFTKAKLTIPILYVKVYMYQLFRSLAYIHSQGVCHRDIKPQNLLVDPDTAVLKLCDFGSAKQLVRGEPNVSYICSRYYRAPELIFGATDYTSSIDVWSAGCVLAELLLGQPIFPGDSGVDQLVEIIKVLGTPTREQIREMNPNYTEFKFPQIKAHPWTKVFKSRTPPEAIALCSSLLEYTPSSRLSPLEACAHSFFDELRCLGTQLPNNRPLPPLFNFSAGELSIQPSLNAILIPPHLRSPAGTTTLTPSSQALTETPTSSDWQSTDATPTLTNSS
UniProt P49841: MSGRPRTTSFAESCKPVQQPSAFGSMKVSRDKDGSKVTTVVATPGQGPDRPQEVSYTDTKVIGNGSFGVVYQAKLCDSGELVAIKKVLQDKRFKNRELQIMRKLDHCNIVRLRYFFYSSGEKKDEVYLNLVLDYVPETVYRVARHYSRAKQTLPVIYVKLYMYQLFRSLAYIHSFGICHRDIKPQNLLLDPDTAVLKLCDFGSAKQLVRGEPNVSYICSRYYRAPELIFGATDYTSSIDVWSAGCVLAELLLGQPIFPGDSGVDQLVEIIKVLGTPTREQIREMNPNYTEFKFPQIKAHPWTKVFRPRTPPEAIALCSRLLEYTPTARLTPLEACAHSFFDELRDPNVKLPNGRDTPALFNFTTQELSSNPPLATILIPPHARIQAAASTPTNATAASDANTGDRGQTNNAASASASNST
UniProt P35222: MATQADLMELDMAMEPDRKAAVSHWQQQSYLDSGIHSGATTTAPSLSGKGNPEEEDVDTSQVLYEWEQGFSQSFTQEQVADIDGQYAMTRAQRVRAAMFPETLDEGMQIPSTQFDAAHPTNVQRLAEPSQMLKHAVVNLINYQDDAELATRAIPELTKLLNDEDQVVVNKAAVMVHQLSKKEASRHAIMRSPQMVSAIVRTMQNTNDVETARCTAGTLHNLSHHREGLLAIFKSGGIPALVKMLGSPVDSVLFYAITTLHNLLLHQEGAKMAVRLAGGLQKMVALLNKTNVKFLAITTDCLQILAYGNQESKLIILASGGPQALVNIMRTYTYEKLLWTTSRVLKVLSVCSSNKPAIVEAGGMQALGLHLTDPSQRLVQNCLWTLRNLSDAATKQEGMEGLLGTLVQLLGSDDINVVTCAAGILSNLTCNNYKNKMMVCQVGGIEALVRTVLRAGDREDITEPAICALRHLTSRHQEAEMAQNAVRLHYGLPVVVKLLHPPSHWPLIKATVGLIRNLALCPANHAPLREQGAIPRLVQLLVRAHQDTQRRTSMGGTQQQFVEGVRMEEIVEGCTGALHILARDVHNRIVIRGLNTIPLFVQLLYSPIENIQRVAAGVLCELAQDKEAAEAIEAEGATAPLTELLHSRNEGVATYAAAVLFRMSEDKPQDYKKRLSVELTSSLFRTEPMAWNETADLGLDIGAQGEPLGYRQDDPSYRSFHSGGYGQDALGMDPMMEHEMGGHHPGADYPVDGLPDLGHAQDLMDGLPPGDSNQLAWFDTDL
UniProt O75197, residues 32-1615: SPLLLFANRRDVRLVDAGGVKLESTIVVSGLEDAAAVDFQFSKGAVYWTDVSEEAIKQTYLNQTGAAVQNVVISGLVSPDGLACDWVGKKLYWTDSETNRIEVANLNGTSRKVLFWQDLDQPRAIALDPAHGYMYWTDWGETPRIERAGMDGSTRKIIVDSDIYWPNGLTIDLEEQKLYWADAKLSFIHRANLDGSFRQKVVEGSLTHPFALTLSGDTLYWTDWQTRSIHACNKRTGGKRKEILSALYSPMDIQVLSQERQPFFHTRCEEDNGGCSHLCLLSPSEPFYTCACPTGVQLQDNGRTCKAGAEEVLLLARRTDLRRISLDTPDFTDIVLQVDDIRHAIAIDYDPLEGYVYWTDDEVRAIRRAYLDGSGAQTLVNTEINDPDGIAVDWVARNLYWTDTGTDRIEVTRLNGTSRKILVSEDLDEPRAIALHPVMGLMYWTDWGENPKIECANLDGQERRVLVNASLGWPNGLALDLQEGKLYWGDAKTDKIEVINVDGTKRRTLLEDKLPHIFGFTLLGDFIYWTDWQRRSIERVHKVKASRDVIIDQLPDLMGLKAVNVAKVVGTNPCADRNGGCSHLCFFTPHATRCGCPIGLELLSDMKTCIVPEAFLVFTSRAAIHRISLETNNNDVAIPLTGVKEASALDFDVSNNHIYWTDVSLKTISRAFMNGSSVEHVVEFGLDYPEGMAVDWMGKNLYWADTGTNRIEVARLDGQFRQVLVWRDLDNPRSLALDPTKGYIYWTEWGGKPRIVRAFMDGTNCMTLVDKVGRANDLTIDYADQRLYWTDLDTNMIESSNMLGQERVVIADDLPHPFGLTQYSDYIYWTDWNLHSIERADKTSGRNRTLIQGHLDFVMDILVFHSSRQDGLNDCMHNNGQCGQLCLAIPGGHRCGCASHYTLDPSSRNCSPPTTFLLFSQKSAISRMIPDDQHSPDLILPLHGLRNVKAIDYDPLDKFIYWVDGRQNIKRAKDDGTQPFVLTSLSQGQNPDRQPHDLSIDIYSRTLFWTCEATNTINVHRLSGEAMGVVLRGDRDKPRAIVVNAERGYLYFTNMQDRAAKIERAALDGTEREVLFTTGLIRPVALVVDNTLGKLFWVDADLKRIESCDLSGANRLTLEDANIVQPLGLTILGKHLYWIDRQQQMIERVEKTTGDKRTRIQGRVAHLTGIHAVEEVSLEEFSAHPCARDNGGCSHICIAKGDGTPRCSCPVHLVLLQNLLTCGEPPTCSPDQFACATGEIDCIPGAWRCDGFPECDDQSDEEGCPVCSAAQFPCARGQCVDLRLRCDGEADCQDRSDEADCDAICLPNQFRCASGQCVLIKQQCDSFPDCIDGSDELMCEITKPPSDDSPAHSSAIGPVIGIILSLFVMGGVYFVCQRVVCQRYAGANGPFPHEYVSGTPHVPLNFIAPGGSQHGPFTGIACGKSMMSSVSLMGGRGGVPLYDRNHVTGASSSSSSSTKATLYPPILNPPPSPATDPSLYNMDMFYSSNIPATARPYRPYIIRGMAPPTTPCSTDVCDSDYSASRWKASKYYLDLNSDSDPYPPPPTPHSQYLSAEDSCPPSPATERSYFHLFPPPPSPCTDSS
UniProt Q9Y297: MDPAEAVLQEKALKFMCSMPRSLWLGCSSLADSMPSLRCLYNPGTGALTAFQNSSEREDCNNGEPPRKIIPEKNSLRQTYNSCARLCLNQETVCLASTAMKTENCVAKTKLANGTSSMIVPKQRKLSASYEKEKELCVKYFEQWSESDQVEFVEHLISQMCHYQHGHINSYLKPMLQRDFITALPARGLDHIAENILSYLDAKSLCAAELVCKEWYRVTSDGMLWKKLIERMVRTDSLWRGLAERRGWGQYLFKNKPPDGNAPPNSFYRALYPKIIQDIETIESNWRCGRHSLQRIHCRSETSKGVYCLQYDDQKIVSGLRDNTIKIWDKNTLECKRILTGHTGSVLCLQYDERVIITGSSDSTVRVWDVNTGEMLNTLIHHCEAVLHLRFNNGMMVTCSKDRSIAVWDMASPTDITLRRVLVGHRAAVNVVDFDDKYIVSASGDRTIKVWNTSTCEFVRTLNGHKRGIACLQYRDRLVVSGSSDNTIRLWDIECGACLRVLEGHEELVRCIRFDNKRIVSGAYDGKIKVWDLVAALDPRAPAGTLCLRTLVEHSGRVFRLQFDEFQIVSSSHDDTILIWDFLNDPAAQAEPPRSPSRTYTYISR

Results are given in words; binding and its absence hold for the method and conditions named. For part of these data: In cells and extracts the contact can be indirect. Some binding calls cover weakened binding; strength is not graded here.

The target of test [1] is MST4 (endogenous) (human (endogenous in HEK293FT)) (UniProt Q9P289). Nature of the test: co-IP; endogenous proteins in HEK293FT cells, with and without Wnt3a treatment; IP buffer 20 mM Tris-HCl pH 7.5, 100 mM NaCl, 0.5% NP-40, 1 mM EDTA; overnight at 4 °C.
Test [2] deals with maltose binding protein (MBP)-tagged MST4 (UniProt Q9P289). Nature of the test: pull-down; MBP-tagged MST4 coupled onto amylose resin beads, incubated with His-tagged β-catenin; 20 mM HEPES pH 7.5, 100 mM NaCl, 1 mM dithiothreitol, 4 °C, 1 h; eluted with 20 mM maltose; both purified.

On to “GSK3α (endogenous) (from UniProt P49840 1-483) (enzyme)”, for which the binding result in test [1] is given as “binds”.
Regarding “GSK3β (endogenous) (from UniProt P49841 1-420) (enzyme)”, in test [1], the binding entry is given as “binds”.
Turning to “His-tagged β-catenin (from UniProt P35222 1-781)”, the binding result in test [2] is “binds”.
As to “LRP5 (endogenous) (from UniProt O75197 32-1615) (receptor)”, the binding entry in test [1] was “binds”.
For “β-TrCP (endogenous) (from UniProt Q9Y297 1-605)”, in test [1], the binding result is “no binding”.
Same read-out and setting: with “β-catenin (endogenous) (from UniProt P35222 1-781)” the entry was “binds”.
